# Measured values as given in the supplement of paper PMC4967469.
# Legend:
# Assay in all cases: Viability of human cancer cell lines after 72 h of drug (GDSC screen)
# STF-62247 = compound: Cc1cccc(Nc2nc(-c3ccncc3)cs2)c1 [STF-62247]; settings: top dose 10.24 µM; top dose inferred
# Description: (§1)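 Human cancer cell lines in 384-well plates, medium with 10% serum, drug for 72 h over a 256-fold dose range (nine 2-fold or five 4-fold steps up to the top dose). Adherent lines were fixed and stained with the nucleic acid dye Syto60, suspension lines read with resazurin; signal relative to control wells, capped at 0 and 100%. One two-parameter sigmoid per drug and line, fitted in a mixed model over all curves with the slope shared within a line.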
# Obatoclax mesylate = compound: COC1=CC(c2cc3ccccc3[nH]2)=N/C1=C\c1[nH]c(C)cc1C [Obatoclax mesylate]; settings: top dose 16 µM
# Description: as §1
# CP724714 = compound: COCC(=O)NC/C=C/c1ccc2ncnc(Nc3ccc(Oc4ccc(C)nc4)c(C)c3)c2c1 [CP724714]; settings: top dose 10.24 µM; top dose inferred
# Description: as §1
# CX-5461 = compound: Cc1cnc(CNC(=O)c2c(=O)c3ccc(N4CCCN(C)CC4)nc3n3c2sc2ccccc23)cn1 [CX-5461]; settings: top dose 10.24 µM; top dose inferred
# Description: as §1
Cell Line,AUC (STF-62247),IC50 (STF-62247),AUC (Obatoclax mesylate),IC50 (Obatoclax mesylate),AUC (CP724714),IC50 (CP724714),AUC (CX-5461),IC50 (CX-5461)
"SCC-4 (head and neck, adherent)",0.983,> 10.2 µM,0.586,1.8 µM,0.979,> 10.2 µM,0.967,> 10.2 µM
"SCC-9 (head and neck, adherent)",0.959,> 10.2 µM,0.545,1.37 µM,0.951,> 10.2 µM,0.732,3.59 µM
"SCC-25 (head and neck, adherent)",0.984,> 10.2 µM,0.144,0.0641 µM,0.942,> 10.2 µM,0.59,1.17 µM
"SF295 (glioma, adherent)",0.985,> 10.2 µM,0.377,0.445 µM,0.978,> 10.2 µM,0.869,> 10.2 µM
"SISO (cervix, adherent)",0.985,> 10.2 µM,0.59,1.74 µM,0.985,> 10.2 µM,0.935,> 10.2 µM
"SJRH30 (rhabdomyosarcoma, adherent)",0.979,> 10.2 µM,0.339,0.351 µM,0.981,> 10.2 µM,0.986,> 10.2 µM
"SK-CO-1 (large intestine, adherent)",0.986,> 10.2 µM,0.657,2.64 µM,0.982,> 10.2 µM,0.933,> 10.2 µM
"SK-HEP-1 (liver, adherent)",0.983,> 10.2 µM,0.269,0.231 µM,0.989,> 10.2 µM,0.965,> 10.2 µM
"SK-LU-1 (lung adenocarcinoma, adherent)",0.976,> 10.2 µM,0.244,0.146 µM,0.971,> 10.2 µM,0.849,> 10.2 µM
"SK-MEL-3 (melanoma, adherent)",0.967,> 10.2 µM,0.088,< 0.0625 µM,0.98,> 10.2 µM,0.984,> 10.2 µM
"SK-MEL-24 (melanoma, adherent)",0.978,> 10.2 µM,0.485,0.902 µM,0.983,> 10.2 µM,0.833,8.68 µM
"SK-MEL-28 (melanoma, adherent)",0.982,> 10.2 µM,0.527,1.18 µM,0.988,> 10.2 µM,0.986,> 10.2 µM
"SK-MEL-30 (melanoma, adherent)",0.982,> 10.2 µM,0.042,< 0.0625 µM,0.985,> 10.2 µM,0.911,> 10.2 µM
"SK-MES-1 (lung squamous cell carcinoma, adherent)",0.972,> 10.2 µM,0.211,,0.94,> 10.2 µM,0.953,> 10.2 µM
"SK-N-AS (neuroblastoma, adherent)",0.977,> 10.2 µM,0.515,1.1 µM,0.981,> 10.2 µM,0.963,> 10.2 µM
"SK-N-SH (neuroblastoma, adherent)",0.978,> 10.2 µM,0.167,0.0978 µM,0.985,> 10.2 µM,0.687,2.13 µM
"SK-OV-3 (ovary, adherent)",0.922,> 10.2 µM,0.403,0.506 µM,0.956,> 10.2 µM,0.897,> 10.2 µM
"SKG-IIIa (cervix, adherent)",0.983,> 10.2 µM,0.734,5.97 µM,0.983,> 10.2 µM,0.983,> 10.2 µM
"SKN (uterus, adherent)",0.971,> 10.2 µM,0.351,0.353 µM,0.927,> 10.2 µM,0.845,9.84 µM
"SKN-3 (head and neck, adherent)",0.982,> 10.2 µM,0.423,0.592 µM,0.978,> 10.2 µM,0.966,> 10.2 µM
"SN12C (kidney, adherent)",0.967,> 10.2 µM,0.477,0.857 µM,0.971,> 10.2 µM,0.985,> 10.2 µM
"SNG-M (endometrium, adherent)",0.985,> 10.2 µM,0.045,< 0.0625 µM,0.923,> 10.2 µM,0.986,> 10.2 µM
"SNU-182 (liver, adherent)",0.969,> 10.2 µM,0.14,0.0698 µM,0.966,> 10.2 µM,0.975,> 10.2 µM
"SNU-387 (liver, adherent)",0.978,> 10.2 µM,0.462,0.777 µM,0.973,> 10.2 µM,0.984,> 10.2 µM
"SNU-398 (liver, adherent)",0.979,> 10.2 µM,0.119,< 0.0625 µM,0.973,> 10.2 µM,0.662,1.84 µM

Cell Line,AUC (STF-62247),IC50 (STF-62247),AUC (Obatoclax mesylate),IC50 (Obatoclax mesylate),AUC (CP724714),IC50 (CP724714),AUC (CX-5461),IC50 (CX-5461)
"SNU-423 (liver, adherent)",0.958,> 10.2 µM,0.23,0.141 µM,0.954,> 10.2 µM,0.983,> 10.2 µM
"SNU-449 (liver, adherent)",0.986,> 10.2 µM,0.267,0.201 µM,0.904,> 10.2 µM,0.986,> 10.2 µM
"SNU-475 (liver, adherent)",0.987,> 10.2 µM,0.951,> 16 µM,0.989,> 10.2 µM,0.966,> 10.2 µM
"SNU-C2B (large intestine, adherent)",0.978,> 10.2 µM,0.476,0.841 µM,0.949,> 10.2 µM,0.928,> 10.2 µM
"SU8686 (pancreas, adherent)",0.975,> 10.2 µM,0.385,0.463 µM,0.983,> 10.2 µM,0.956,> 10.2 µM
"SU-DHL-5 (B-cell lymphoma, suspension)",0.71,2.1 µM,0.009,< 0.0625 µM,0.939,> 10.2 µM,0.329,0.244 µM
"SUIT-2 (pancreas, adherent)",0.946,> 10.2 µM,0.082,< 0.0625 µM,0.969,> 10.2 µM,0.614,1.34 µM
"SW13 (adrenal gland, adherent)",0.988,> 10.2 µM,0.362,0.414 µM,0.974,> 10.2 µM,0.988,> 10.2 µM
"SW48 (large intestine, adherent)",0.971,> 10.2 µM,0.464,0.8 µM,0.971,> 10.2 µM,0.67,1.9 µM
"SW156 (kidney, adherent)",0.966,> 10.2 µM,0.55,1.39 µM,0.968,> 10.2 µM,0.985,> 10.2 µM
"SW620 (large intestine, adherent)",0.947,> 10.2 µM,0.035,< 0.0625 µM,0.98,> 10.2 µM,0.763,3.28 µM
"SW626 (ovary, adherent)",0.974,> 10.2 µM,0.172,0.0805 µM,0.787,5.36 µM,0.954,> 10.2 µM
"SW756 (cervix, adherent)",0.985,> 10.2 µM,0.175,0.0824 µM,0.973,> 10.2 µM,0.985,> 10.2 µM
"SW780 (bladder, adherent)",0.985,> 10.2 µM,0.579,1.68 µM,0.98,> 10.2 µM,0.986,> 10.2 µM
"SW837 (large intestine, adherent)",0.982,> 10.2 µM,0.39,0.452 µM,0.952,> 10.2 µM,0.726,3.52 µM
"SW900 (lung squamous cell carcinoma, adherent)",0.985,> 10.2 µM,0.708,4.28 µM,0.983,> 10.2 µM,0.941,> 10.2 µM
"SW948 (large intestine, adherent)",0.979,> 10.2 µM,0.75,,0.972,> 10.2 µM,0.966,> 10.2 µM
"SW1088 (glioma, adherent)",0.981,> 10.2 µM,0.643,2.8 µM,0.981,> 10.2 µM,0.982,> 10.2 µM
"SW1271 (small cell lung carcinoma, adherent)",0.982,> 10.2 µM,0.061,< 0.0625 µM,0.984,> 10.2 µM,0.849,9.53 µM
"SW1417 (large intestine, adherent)",0.985,> 10.2 µM,0.194,0.101 µM,0.979,> 10.2 µM,0.986,> 10.2 µM
"SW1463 (large intestine, adherent)",0.974,> 10.2 µM,0.511,1.09 µM,0.845,> 10.2 µM,0.976,> 10.2 µM
"SW1573 (lung adenocarcinoma, adherent)",0.973,> 10.2 µM,0.629,2.57 µM,0.981,> 10.2 µM,0.981,> 10.2 µM
"SW1710 (bladder, adherent)",0.898,> 10.2 µM,0.111,< 0.0625 µM,0.974,> 10.2 µM,0.973,> 10.2 µM
"SW1783 (glioma, adherent)",0.991,> 10.2 µM,0.243,0.199 µM,0.988,> 10.2 µM,0.991,> 10.2 µM

# A lower IC50 marks a more sensitive line; where the fit passes the top or lowest dose, that dose stands as a limit. AUC, from the same fit, is the share of area under the viability curve across the 256-fold dose range: 1 means no effect, lower means more sensitive. For part of these data: An inferred top dose comes from the curve model; the source does not state it.
